Laboratory results reported in PubChem BioAssay AID1347043 (National Center for Advancing Translational Sciences (NCATS), 2019).
The campaign covered roughly 76,000 compounds. About 1,900 (2.5%) were called active. The inconclusive results got no clear call from the source; some entries with a clear call stand among them for comparison. The call rests on the fitted dose curve; in most records, active means well fitted inhibition curve with a large enough effect; inconclusive means small, poorly fitted or top-dose-only effect; inactive means flat fitted curve, though single readings scatter. Where the call is inconclusive, the potency comes from a doubtful curve fit.
Further: nearly all actives have a fitted effect of over 65% in size.
Potency means the concentration at half of the fitted maximal effect; tags describe the fitted curve by direction and shape.

Each molecule was assayed against Luciferin 4-monooxygenase (Photinus pyralis) (UniProt P08659) (assay: Firefly luciferase inhibition profiling of diverse chemical library using quantitative high-throughput screening). Conditions: purified P. pyralis luciferase, luminescence, biochemical; series mostly up to 115 µM.
Sequence of UniProt P08659 (P08659 whole entry, looked up): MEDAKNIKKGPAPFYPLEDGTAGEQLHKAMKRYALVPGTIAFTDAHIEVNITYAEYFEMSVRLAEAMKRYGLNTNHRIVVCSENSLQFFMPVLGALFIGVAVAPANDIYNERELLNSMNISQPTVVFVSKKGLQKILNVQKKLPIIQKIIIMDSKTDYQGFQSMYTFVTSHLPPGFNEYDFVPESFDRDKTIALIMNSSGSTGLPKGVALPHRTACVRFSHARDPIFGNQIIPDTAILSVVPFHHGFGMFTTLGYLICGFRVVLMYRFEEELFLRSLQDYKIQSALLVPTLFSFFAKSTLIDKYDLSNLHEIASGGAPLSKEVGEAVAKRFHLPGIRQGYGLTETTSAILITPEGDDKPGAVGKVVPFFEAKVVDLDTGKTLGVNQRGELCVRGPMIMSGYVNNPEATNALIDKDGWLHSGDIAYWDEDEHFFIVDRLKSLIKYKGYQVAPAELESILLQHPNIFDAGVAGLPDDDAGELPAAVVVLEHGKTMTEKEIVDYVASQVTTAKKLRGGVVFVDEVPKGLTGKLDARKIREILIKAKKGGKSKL
Summary of the method: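 Purified P. pyralis luciferase (10nM final) in 50mM Tris acetate pH 7.5, 10mM Mg acetate, 0.01% Tween-20, 0.05% BSA with 10uM D-luciferin and 10uM ATP. Compounds titrated qHTS. Luminescence imaged on CCD.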
`COc1ccc(-c2n[nH]c3c2CC(=O)N(CCOc2ccccc2)C3)cn1` was tested, and the Potency was inconclusive: 5.01 µM [inhibitor, full curve].
`CCOC(=O)c1cccc(NC(=O)N2CC[C@@H](CC(=O)O)[C@@H](CC)C2)c1` was tested, and the Potency was “inactive”.
In the case of `COc1ccccc1-c1cccc(COc2ccc3c(cnn3CC[S+](C)(=O)[O-])c2)c1`, the Potency is reported as inconclusive: 28.2 µM [inhibitor, full curve].
In the case of `COc1ccc(-c2cc3nc4c(c(=O)n3[nH]2)CN(C(=O)c2sccc2C)CC4)cc1`, the Potency is reported as inconclusive: 14.1 µM [inhibitor, full curve].
In the case of `O=C([C@H]1C[C@H](Oc2ccccc2)CN1C(=O)Cc1ccccc1F)N1CCOCC1`, the Potency is reported as inconclusive: 100 µM [inhibitor, single point].
`COc1ccc(C(=O)N2CCC3(CC2)CC(Cc2nc(-c4ccccc4)no2)CCO3)cc1` (stereo unspecified) was tested, and the Potency was inconclusive: 50.1 µM [inhibitor, partial curve, poor fit].
In the case of `O=C(NCC1CC1)c1nc2c(o1)CCN(Cc1cccc(O)c1)CC2`, the Potency is reported as inconclusive: 112 µM [inhibitor, single point].
`CCOc1ccccc1NC(=O)C1CCN(c2cnc3nccnc3c2)CC1` was tested, and the Potency was “inactive”.
With `O[C@H]1CN[C@H](c2nc(-c3ccc(OC(F)(F)F)cc3)no2)C1` the Potency was active: 31.6 µM.
`N#Cc1cccc(-c2cn3c(n2)N(C(=O)c2ccco2)CCC3)c1` was tested, and the Potency was inconclusive: 39.8 µM [inhibitor, partial curve].
`COc1cccc(Nc2cc3[nH]ccc3c(C(=O)NCc3c(C)cc(C)[nH]c3=O)n2)c1` was tested, and the Potency was inconclusive: 63.1 µM [inhibitor, partial curve].
With `COc1ccc(-c2ccc3ncc(Nc4cccc(F)c4)n3n2)cc1OC` the Potency was “inactive”.
`Cn1cccc1C(=O)N1CCC(n2cc(-c3nc(-c4ccccc4)no3)nn2)C1` (stereo unspecified) was tested, and the Potency was inconclusive: 63.1 µM [inhibitor, partial curve, poor fit].
`COc1ccc(Cc2nc3nccc(-c4cccs4)n3n2)cc1` was tested, and the Potency was inconclusive: 50.1 µM [inhibitor, partial curve, poor fit].
For `COc1cccc(CCC(=O)N2CCC3(CC2)C(=O)N(C)c2ccccc23)c1`, the Potency was “inactive”.
For `O=C(Nc1ccc2c(c1)OCCO2)N1CCCC(Cn2c(C3CC3)nc3cccnc32)C1` (stereo unspecified), the Potency was “inactive”.
For `Cc1nn(-c2ccc(C(C)C)cc2)c(C)c1[C@@H]1C=C[C@@H](NCc2cccc(Cl)c2)C1`, the Potency was active: 44.7 µM.
With `Cn1nc(-c2cccs2)cc1-c1nc(C2CCOC2)no1` (stereo unspecified) the Potency was inconclusive: 39.8 µM [inhibitor, full curve].
`CCOC(=O)C1CCCCN1C(=O)c1oc2c(Cl)cc(C)cc2c1C` (stereo unspecified) was tested, and the Potency was “inactive”.
With `CN1c2cc(C(=O)Nc3ccc(Cl)cc3)ccc2C(=O)N2CCCCC21` (stereo unspecified) the Potency was inconclusive: 31.6 µM [inhibitor, partial curve].
For `C=CCO[C@@H]1CCN2C(=O)c3cc(-c4ccc(F)cc4F)ccc3NC(=O)[C@H]12`, the Potency was “inactive”.
With `O=C(c1ccc2c(c1)OCO2)N1CCCC(n2cc(-c3nc(-c4ccccc4)no3)nn2)C1` (stereo unspecified) the Potency was inconclusive: 17.8 µM [inhibitor, full curve].
In the case of `Cc1c(-c2ccccc2F)[nH]c2ccc(CNC(=O)C3CCCN(C(N)=O)C3)cc12` (stereo unspecified), the Potency is reported as active: 3.55 µM.
With `Cc1ccccc1[C@@H]1CN(C(=O)CN(C)C2CCN(C)CC2)C[C@H]1C(=O)O` the Potency was “inactive”.
`CC(=O)Nc1cccc(-c2cnc3[nH]cc(CC(=O)N4CCOCC4)c3c2)c1` was tested, and the Potency was inconclusive: 70.8 µM [inhibitor, partial curve].
In the case of `CCc1ccc(NC(=O)Cn2c(=O)c(-c3noc(CC)n3)c3n(c2=O)CCCC3)cc1`, the Potency is reported as “inactive”.
With `Cc1nn(-c2ccc(C(F)(F)F)cc2)c(C)c1[C@@H]1C=C[C@@H](NC(=O)c2ccc(N(C)C)cc2)C1` the Potency was inconclusive: 15.8 µM [inhibitor, partial curve, poor fit].
For `Cc1cccc(-c2ncc3c(n2)OCCN(c2cccc(C(F)(F)F)c2)C3=O)c1`, the Potency was inconclusive: 0.355 µM [inhibitor, full curve].
For `COc1ccc2c(c1)cc(C(=O)N1Cc3[nH]cnc3CC1C(=O)O)n2C` (stereo unspecified), the Potency was “inactive”.
`Cc1ccc(NC(=O)Nc2ccc(C)n(CC(=O)NC(C)c3cccnc3)c2=O)cc1` (stereo unspecified) was tested, and the Potency was active: 1.12 µM.
In the case of `O=C(COc1ccccc1)N1CCCC(c2noc(COc3ccccc3)n2)C1` (stereo unspecified), the Potency is reported as inconclusive: 39.8 µM [inhibitor, partial curve].
In the case of `Cc1ccccc1C(=O)N1C(C(=O)NCC(C)C)COC12CCN(C(=O)c1cccc(Cl)c1)CC2` (stereo unspecified), the Potency is reported as “inactive”.
With `Cc1ccc(NC(=O)c2ccc(CN3C(=O)NC4(CCOCC4)C3=O)cc2)cc1` the Potency was active: 15.8 µM.
`O=C(NC1CCCC1)N1CCC(Oc2ccc(-c3noc(C4CC4)n3)cc2)C1` (stereo unspecified) was tested, and the Potency was inconclusive: 39.8 µM [inhibitor, partial curve].
In the case of `COc1ccc(C(=O)N2CCC[C@H]2c2nc(-c3ccc(F)cc3)no2)c(OC)c1`, the Potency is reported as inconclusive: 39.8 µM [inhibitor, partial curve].
In the case of `O=C(c1ccncc1)N1CCc2c(nc3cc(-c4ccccc4Cl)[nH]n3c2=O)C1`, the Potency is reported as inconclusive: 44.7 µM [inhibitor, partial curve].
`CC(C)Oc1cccc(-c2n[nH]c3c2CC(=O)N(CCOc2ccccc2)C3)c1` was tested, and the Potency was inconclusive: 89.1 µM [inhibitor, partial curve].
With `CC(C)NC(=O)C1CCN(C(=O)c2ncn3c2COC(c2ccccc2)C3)CC1` (stereo unspecified) the Potency was active: 3.55 µM.
With `CN1c2cc(C(=O)Nc3ccc(F)c(Cl)c3)ccc2C(=O)N2CCCCCC21` (stereo unspecified) the Potency was inconclusive: 12.6 µM [inhibitor, full curve].
`CCOc1ccc2c(n1)CCN(C(=O)c1ccc(C)s1)C2` was tested, and the Potency was inconclusive: 39.8 µM [inhibitor, partial curve].
In the case of `Cc1cc(C)c(C(=O)N2CCCC(CCc3ccccc3C)C2)c(=O)[nH]1` (stereo unspecified), the Potency is reported as inconclusive: 56.2 µM [inhibitor, partial curve].
`Cc1ccc(NC(=O)Nc2ccc(C)n(CC(=O)NCCC(C)C)c2=O)cc1` was tested, and the Potency was active: 0.562 µM.
`COc1ccccc1-c1cnc(Nc2ccc(Cl)cn2)c2c1CCO2` was tested, and the Potency was inconclusive: 15.8 µM [inhibitor, full curve].
In the case of `O=C(c1ccccc1Cl)N1CCc2c(nc3cc(-c4ccccc4)[nH]n3c2=O)C1`, the Potency is reported as inconclusive: 50.1 µM [inhibitor, partial curve].
For `O=C(CCCc1nc2ccccc2[nH]1)N1CCc2c(nc3cc(-c4ccccc4)[nH]n3c2=O)C1`, the Potency was inconclusive: 50.1 µM [inhibitor, partial curve].
For `CCn1nccc1C(=O)N1CCCC(n2cc(-c3nc(-c4ccccc4)no3)nn2)C1` (stereo unspecified), the Potency was inconclusive: 50.1 µM [inhibitor, partial curve].
For `Cc1ccccc1NC(=O)Cn1ccn2nc3c(c2c1=O)CCCCC3`, the Potency was inconclusive: 31.6 µM [inhibitor, partial curve].
With `Cc1noc(C2CCCCN2C(=O)c2ccc(-c3ccccc3Cl)o2)n1` (stereo unspecified) the Potency was inconclusive: 50.1 µM [inhibitor, partial curve].
`COc1ccc(CN2CCc3nc(C(=O)Nc4ccc(Cl)cc4)oc3CC2)cn1` was tested, and the Potency was inconclusive: 79.4 µM [inhibitor, partial curve, poor fit].
For `Cc1ccc(CN2CCc3oc(C)c(C(=O)N(C)CC(=O)N4CCCC4)c3C2)cc1`, the Potency was “inactive”.
`Fc1cccc(-c2cc3c(cn2)CN(Cc2ccncc2)CCN3)c1` was tested, and the Potency was active: 39.8 µM.
For `COc1ccc(C(=O)Nc2ccc([C@H]3OCC(=O)N(C)[C@@H]3CO)cc2)cc1`, the Potency was active: 70.8 µM.
With `CNC(=O)[C@@H](C1CC1)N1CCC[C@H]1C(=O)N1CCOCC1` the Potency was “inactive”.
For `Cc1ccc(C2Cn3cnc(C(=O)N4CCC(C(=O)NCc5cccc(Cl)c5)CC4)c3CO2)cc1` (stereo unspecified), the Potency was inconclusive: 44.7 µM [inhibitor, partial curve].
In the case of `COCCNc1ncc(-c2ccc(SC)cc2)c2c1OCC2`, the Potency is reported as inconclusive: 20 µM [inhibitor, full curve].
In the case of `CC(=O)c1cc(C(=O)N2CCCC(CCc3ccccc3C)C2)[nH]n1` (stereo unspecified), the Potency is reported as inconclusive: 44.7 µM [inhibitor, partial curve, poor fit].
`COc1ccccc1-c1ccc(NCC2CCCN(C(=O)C3CC3)C2)nn1` (stereo unspecified) was tested, and the Potency was inconclusive: 44.7 µM [inhibitor, partial curve].
For `Cc1noc(C)c1-c1cc2cc(C(C)C)oc2c(Nc2ccn(C)n2)n1`, the Potency was “inactive”.
`Cc1nn(CCC#N)c(C)c1[C@@H]1C=C[C@@H](NC(=O)Nc2ccccc2)C1` was tested, and the Potency was inconclusive: 112 µM [inhibitor, partial curve, poor fit].
For `COc1ccc(NC(=O)N2Cc3[nH]cnc3C[C@H]2c2nc(-c3ccc(F)cc3)no2)cc1`, the Potency was inconclusive: 79.4 µM [inhibitor, partial curve].
For `CSc1ccc(-c2nc3c([nH]2)CC(C)(C)CNC3=O)cc1`, the Potency was active: 12.6 µM.
In the case of `COC(=O)c1cccc(C(=O)N2CCC(Cc3nc(-c4ccc(OC)cc4)no3)CC2)c1`, the Potency is reported as “inactive”.
`COCC(=O)N[C@H]1C[C@@H](Cc2cc(-c3ccc(OC)cc3)on2)C1(C)C` was tested, and the Potency was inconclusive: 112 µM [inhibitor, partial curve, poor fit].
`COc1ccc(NC(=O)Nc2cccc(-c3ccc(N4CCCCC4)nn3)c2)c(OC)c1` was tested, and the Potency was active: 0.316 µM.
With `COc1ccc(NC(=O)c2cc3n(n2)CC(c2ccc4c(c2)OCO4)OC3)cc1` (stereo unspecified) the Potency was inconclusive: 50.1 µM [inhibitor, partial curve].
`c1cc(CN2CCNc3cc(-c4ccsc4)ncc3C2)ccn1` was tested, and the Potency was inconclusive: 79.4 µM [inhibitor, partial curve].
